Assay results taken from the supplement of paper PMC6089552.
Among all 3,200 compounds or so, about 300 (9.4%) showed activity. Only a part is listed here, and it is no random draw.

System: A673/TR/shEF
Experiment: cell viability (LOESS-normalised, relative to median of negative controls) (log2 ratio); higher = more viable cells (less compound effect), active = hit call of the paper (over 3 MAD below the median)
Details: treatment time: 72 h
Summary of the method: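 A673/TR/shEF Ewing sarcoma cells (1,500 per well, 384-well plates) were grown with or without doxycycline to induce EWS-FLI1 shRNA knockdown, starting 24 h before compounds. Library compounds at two or more concentrations, with DMSO controls, were added for three days. Cell viability was read by CellTiter-Glo luminescence on an Envision reader, then LOESS-corrected per plate, divided by the median of negative controls and log2-transformed. Hits were wells at least three median absolute deviations from the median of all screened wells.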

[1] = 0.25 µM, library screen: screen1, EWS-FLI1 expression: high (no doxycycline)
[2] = 0.25 µM, library screen: screen1, EWS-FLI1 expression: low (doxycycline-induced shRNA knockdown)
[3] = 2.5 µM, library screen: screen1, EWS-FLI1 expression: high (no doxycycline)
[4] = 2.5 µM, library screen: screen1, EWS-FLI1 expression: low (doxycycline-induced shRNA knockdown)
[5] = 0.25 µM, library screen: screen2, EWS-FLI1 expression: high (no doxycycline)
[6] = 0.25 µM, library screen: screen2, EWS-FLI1 expression: low (doxycycline-induced shRNA knockdown)
[7] = 2.5 µM, library screen: screen2, EWS-FLI1 expression: high (no doxycycline)
[8] = 2.5 µM, library screen: screen2, EWS-FLI1 expression: low (doxycycline-induced shRNA knockdown)
[9] = 0.103 µM, library screen: screen3, EWS-FLI1 expression: high (no doxycycline)
[10] = 0.103 µM, library screen: screen3, EWS-FLI1 expression: low (doxycycline-induced shRNA knockdown)
[11] = 0.308 µM, library screen: screen3, EWS-FLI1 expression: high (no doxycycline)
[12] = 0.308 µM, library screen: screen3, EWS-FLI1 expression: low (doxycycline-induced shRNA knockdown)
[13] = 0.926 µM, library screen: screen3, EWS-FLI1 expression: high (no doxycycline)
[14] = 0.926 µM, library screen: screen3, EWS-FLI1 expression: low (doxycycline-induced shRNA knockdown)
[15] = 2.8 µM, library screen: screen3, EWS-FLI1 expression: high (no doxycycline)
[16] = 2.8 µM, library screen: screen3, EWS-FLI1 expression: low (doxycycline-induced shRNA knockdown)
[17] = 8.3 µM, library screen: screen3, EWS-FLI1 expression: high (no doxycycline)
[18] = 8.3 µM, library screen: screen3, EWS-FLI1 expression: low (doxycycline-induced shRNA knockdown)
[19] = 25 µM, library screen: screen3, EWS-FLI1 expression: high (no doxycycline)
[20] = 25 µM, library screen: screen3, EWS-FLI1 expression: low (doxycycline-induced shRNA knockdown)

Measured: cell viability (log2)

O=C1O[C@H]([C@@H](O)CO)C([O-])=C1[O-].[Ca+2]
inactive: [1] 0.0808 | [2] 0.0736 | [3] 0.131 | [4] 0.127

CC1(C)C[C@@]23C(=O)CC[C@@H](O)C2(C)CC[C@H]13 (some centres not stated)
inactive: [1] 0.0615 | [2] -0.0504 | [3] 0.0572 | [4] 0.0807

COC(=O)C[C@H]1C(C)(C)[C@H](O)[C@@H]2CC3=C4CC(O)O[C@@H](c5ccoc5)[C@]4(C)CCC3[C@@]1(C)C2=O (some centres not stated)
inactive: [1] 0.0798 | [2] 0.183 | [3] 0.141 | [4] 0.127

Oc1cc2c(cc1O)C(c1ccccc1)CNCC2 (configuration not stated)
inactive: [5] 0.125 | [6] 0.0728 | [7] 0.12 | [8] 0.132

CN1CCN(CC(=O)N2c3ccccc3C(=O)Nc3cccnc32)CC1
inactive: [1] 0.0285 | [2] 0.0627 | [5] 0.163 | [6] 0.0865 | [3] 0.103 | [4] 0.0686 | [7] 0.175 | [8] 0.0449

CC1CCN(CC[C@H]2CCCN2S(=O)(=O)c2cccc(O)c2)CC1
inactive: [5] 0.126 | [6] 0.0228 | [7] 0.14 | [8] 0.043

CC(=O)OC12CCCC(C)(CCC3C1CC3(C)C)C2 (configuration not stated)
inactive: [1] 0.0248 | [2] -0.0723 | [3] 0.116 | [4] -0.0213

NC[C@@H]1O[C@H](C23CC4CC(CC(C4)C2)C3)Cc2c1ccc(O)c2O
inactive: [5] 0.195 | [6] 0.177 | [7] 0.164 | [8] 0.0586

COc1cc(C(O)CO)ccc1O (configuration not stated)
inactive: [5] 0.211 | [6] 0.11 | [7] 0.163 | [8] 0.105

CC(C(=O)O)N1C(=O)C(=Cc2cccnc2)SC1=S (configuration not stated)
inactive: [1] -0.0281 | [2] 0.0107 | [3] 0.0923 | [4] -0.0695

C[C@@](Cc1ccc(O)c(O)c1)(NN)C(=O)O
inactive: [9] 0.0561 | [10] 0.0298 | [1] 0.0574 | [2] 0.0638 | [5] 0.204 | [6] 0.0896 | [11] 0.0627 | [12] 0.0768 | [13] 0.0384 | [14] 0.0316 | [3] 0.0851 | [4] 0.0635 | [7] 0.113 | [8] 0.042 | [15] 0.127 | [16] 0.0372 | [17] 0.109 | [18] 0.129 | [19] 0.131 | [20] 0.096

COc1cc(/C=C/C(=O)/C=C(O)/C=C/c2ccc(O)c(OC)c2)ccc1O
inactive: [1] 0.0822 | [2] 0.0311 | [3] 0.0603 | [4] -0.0173

O=C(O)/C=C/C(O)c1ccc(Cl)cc1 (configuration not stated)
inactive: [5] 0.208 | [6] 0.124 | [7] 0.113 | [8] 0.00489

C[C@]12CCC(=O)C=C1CC[C@@H]1[C@@H]2CC[C@@]2(C)[C@H]1CC[C@]2(O)C(=O)CO
inactive: [5] 0.161 | [6] 0.0623 | [7] 0.245 | [8] 0.0383

NC[C@@H]1O[C@H](O[C@H]2[C@@H](O)[C@H](O[C@@H]3[C@@H](O)[C@H](N)C[C@H](N)[C@H]3O[C@H]3O[C@H](CO)[C@@H](O)C[C@H]3N)O[C@@H]2CO)[C@H](N)[C@@H](O)[C@@H]1O[C@H]1O[C@H](CO)[C@@H](O)[C@H](O)[C@@H]1O
inactive: [1] 0.156 | [2] 0.0397 | [3] 0.0315 | [4] 0.0591

CN(C)CCC(c1ccc(Br)cc1)c1ccccn1 (configuration not stated)
inactive: [1] 0.216 | [2] 0.0645 | [5] 0.203 | [6] 0.122 | [3] 0.106 | [4] 0.0334 | [7] 0.147 | [8] 0.129

COc1ccccc1N1CCN(CCCNc2c(C)c(=O)n(C)c(=O)n2C)CC1
inactive: [5] 0.136 | [6] 0.116 | [7] 0.12 | [8] 0.055

Oc1c(Cl)cc(Cl)c2cccnc12
inactive: [9] 0.144 | [10] 0.0884 | [1] 0.0613 | [2] 0.0797 | [11] 0.145 | [12] 0.0833 | [13] 0.152 | [14] 0.0399 | [3] 0.11 | [4] 0.0736 | [15] 0.0907 | [16] 0.0284 | [17] 0.0697 | [18] 0.0552 | [19] -0.128 | [20] 0.105

CN1CCN(c2nc3ccccn3c(=O)c2/C=C2\SC(=S)N(CC3CCCO3)C2=O)CC1 (configuration not stated)
inactive: [1] 0.134 | [2] 0.0801 | [3] 0.0647 | [4] 0.048
